In all, about 390,000 compounds went through this assay and about 930 (0.24%) were called active. The inconclusive results got no clear call from the source; some entries with a clear call stand among them for comparison. The call rests on the fitted dose curve; in most records, active means well fitted activation curve with a large enough effect; inconclusive means small, poorly fitted or top-dose-only effect; inactive means no such curve, though single readings can be large or run the other way. Potencies beside an inconclusive call are fits to weak or partial responses and may not hold up.
Assay: qHTS for Suppressors of FUS Proteinopathy: Primary screen using FUS-linked yeast assay; further: nearly all actives have a fitted effect of over 55% in size;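 on growth rescue (activation): plate controls were DMSO vehicle for no effect and reference control for full effect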
Details: S. cerevisiae FUS-expressing, OD600, 24 h; Potency: growth rescue; growth rescue (activation): at 76.6 µM (top of the series)
Summary of the method: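 Galactose (2%) drives FUS expression in yeast precultured in raffinose; seeding density OD 0.005. Test compounds incubated 24hr at 30C and 99% humidity before absorbance at 600 nm was measured.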
Potency means the concentration at half of the fitted maximal effect; tags describe the fitted curve by direction and shape.

SMILES | Potency | growth rescue (activation)
O=C(CCCn1c(SCC(=O)Nc2ccccc2C(F)(F)F)nc2ccccc2c1=O)NCC1CCCO1 (stereo not drawn) | inconclusive: 35.5 µM [activator, single point] | –
CCOC(=O)c1noc2ncn(CC(=O)Nc3ccc(C)c(F)c3)c(=O)c12 | – | inactive: -7.63%
CCc1cccc(NC(=O)C2CCN(C(=O)c3cnn(-c4ccccc4)c3-n3cccc3)CC2)c1 | inconclusive: 25.1 µM [activator, single point] | –
COc1cc(Cl)c(C)cc1NC(=O)CSc1nnc(-c2ccco2)n1CC(C)C | inconclusive: 20 µM [activator, partial curve, poor fit] | –
Clc1ccc(/C(Cc2nc3ccccc3[nH]2)=N\Nc2ccccc2)cc1 | inconclusive: 50.1 µM [activator, single point] | –
CCOC(=O)C1CCCN(C(=O)c2nn(-c3ccc(OC)cc3)c(=O)c3c2c2ccccc2n3C)C1 (stereo not drawn) | – | inactive: -13%
CCOC(=O)c1c(S(=O)(=O)N2CCCC(C(=O)NCc3ccc(Cl)cc3)C2)c(C)n(C)c1C (stereo not drawn) | – | inactive: 7%
COc1ccc(F)cc1S(=O)(=O)NCCc1csc2nc(-c3cccc(C)c3)nn12 | inconclusive: 28.2 µM [activator, partial curve, poor fit] | –
O=[N+]([O-])c1cccc(P(=O)(O)c2cccc([N+](=O)[O-])c2)c1 | inconclusive: 25.1 µM [activator, partial curve, poor fit] | –
O=[N+]([O-])c1cc(Cl)ccc1N1CCOCC1 | – | inactive: -7.2%
O=C1N[C@H](Cc2ccccc2)COC(=O)[C@@H](Cc2ccc(F)cc2)CC/C=C/C[C@H]1CC(=O)N(CCO)Cc1ccccc1 | inconclusive: 20 µM [activator, single point] | –
COc1cccc(NC(=O)CN(C)C(=O)c2cccc(NS(=O)(=O)c3ccc(Br)cc3)c2)c1 | inconclusive: 28.2 µM [activator, single point] | –
CCN(CC)C(=O)CSc1nc(-c2ccccc2F)nc2c1Cc1c(CO)cnc(C)c1O2 | – | inactive: 48.3%
O=C(O)c1ccc(O)c(O)c1 | – | inactive: -14.2%
COc1ccc(C(=O)N/N=C/c2sc3ccccc3c2O)cc1 | – | inactive: 19%
CC1C(=O)N(Cc2cn(CC3CCCCC3)nn2)CCS(=O)(=O)N1Cc1ccc(-c2ccc(Cl)cc2)cc1 (stereo not drawn) | inconclusive: 14.1 µM [activator, partial curve, poor fit] | –
COc1cccc(CNC(=O)C(=O)Nc2c3c(nn2-c2ccccc2)CSC3)c1 | inconclusive: 50.1 µM [activator, single point] | –
CCOc1ccc(-c2cccc(NS(=O)(=O)c3c(C)cc(C)cc3C)c2)nn1 | inconclusive: 14.1 µM [activator, partial curve] | –
CCC(Sc1nc2ccsc2c(=O)n1Cc1ccc(C(=O)O)cc1)C(=O)Nc1ccc(C)c(Cl)c1 (stereo not drawn) | inconclusive: 28.2 µM [activator, single point] | –
Cc1c(Cl)cccc1NC(=O)Cn1c(CCC(=O)O)ccc1-c1cccs1 | inconclusive: 50.1 µM [activator, single point] | –
COc1ccc2c(CNCCc3cccs3)c(C(=O)O)n(Cc3ccccc3)c2c1 | inconclusive: 28.2 µM [activator, single point] | –

SMILES | Potency | growth rescue (activation)
O=C1OCCN1C(=O)[C@H]1[C@H](c2ccc(F)cc2)C(c2ccc(F)cc2)=NN1c1ccc(Br)cc1 | inconclusive: 17.8 µM [activator, partial curve] | –
C/C=C\C=C\C(=O)N1CC2(CC(c3cccc(NC(=O)CC(c4ccccc4)c4ccccc4)c3)=NO2)C[C@H]1C(N)=O (stereo partly drawn) | inconclusive: 35.5 µM [activator, single point] | –
CCc1c(C)nc2cc(-c3cc(OC)cc(OC)c3)nn2c1N1CCCC1 | inconclusive: 35.5 µM [activator, single point] | –
O=C(CSc1nc2ncc(Cl)cc2[nH]1)Nc1ccccc1-c1ccccc1 | inconclusive: 31.6 µM [activator, single point] | –
CC(=O)OCCCCCCCCCCC[N+]1(C)CCCCC1 | – | inactive: -4.03%
CCOc1ccccc1CNC(=O)CCn1ccc2cc(S(=O)(=O)N3CCC(C)CC3)ccc21 | inconclusive: 25.1 µM [activator, single point] | –
Nc1cc(=O)[nH]c(SCC(=O)Nc2cc(S(=O)(=O)N3CCCCC3)ccc2Cl)n1 | inconclusive: 35.5 µM [activator, single point] | –
O=c1c(Cl)c(Cl)cnn1Cc1ccc(F)cc1 | – | inactive: -9.11%
C=CCN1C(=O)[C@H](CC(=O)NCC2CCCCC2)[C@@]2(C(=O)OCC)CCCC=C12 | – | inactive: 9.67%
O=C(CCS(=O)(=O)c1cc(Br)cc2c1N(C(=O)C1CC1)CC2)Nc1ccc(Br)cc1F | – | inactive: -0.121%
CCC[C@H]1[C@@H](OC(=O)NCc2cccc(C(F)(F)F)c2)CC[C@@]23CCCN2C(=O)CCC[C@@H]13 | inconclusive: 15.8 µM [activator, single point] | –
O=C(c1ccc(-c2ccc([N+](=O)[O-])cc2)o1)N1CCCC(C(F)(F)F)C1 (stereo not drawn) | inconclusive: 35.5 µM [activator, partial curve, poor fit] | –
CCN(CC(=O)Nc1ccccc1OC)C(=O)c1cc(-c2ccccc2)nn1-c1ccccc1 | inconclusive: 39.8 µM [activator, single point] | –
Cc1c(C(=O)N(Cc2ccccc2Cl)C2CCS(=O)(=O)C2)oc2ccccc12 (stereo not drawn) | inconclusive: 31.6 µM [activator, single point] | –
COC(=O)[C@@]1(Cc2ccc(OC)cc2)[C@H]2c3cc(C(=O)N(C)C)n(C[C@H](O)CO)c3C[C@H]2CN1C(=O)c1ccccc1 | inconclusive: 28.2 µM [activator, partial curve, poor fit] | –
NC(=O)CSc1nc2ccc([N+](=O)[O-])cc2[nH]1 | – | inactive: 6.27%
COc1ccccc1NC(=O)Cn1nnc(C(=O)NCc2ccc3c(c2)OCO3)c1N | inconclusive: 7.94 µM [activator, partial curve, poor fit] | –
O=c1[nH]c(=S)[nH]c2c1C(c1ccc(F)cc1)OC(CCC(F)(F)F)C2 (stereo not drawn) | – | inactive: -0.172%
O=C(O)c1ccc([N+](=O)[O-])cc1-c1cc([N+](=O)[O-])ccc1C(=O)O | – | inactive: -8.06%
CCc1ccc(OCC(=O)N(Cc2ccc(Cl)cc2)C2CCS(=O)(=O)C2)cc1 (stereo not drawn) | inconclusive: 50.1 µM [activator, single point] | –
OC[C@@H]1CN(Cc2ccccc2)C[C@H](n2cnc3c(N4CCN(c5ccccc5)CC4)ncnc32)O1 | active: 20 µM | –

SMILES | Potency | growth rescue (activation)
COc1ccc([N+](=O)[O-])cc1NCc1cccc([N+](=O)[O-])c1 | – | inactive: 10.7%
CCOC(=O)C1CCN(C(=O)c2cccc(S(=O)(=O)N3CCCc4ccccc43)c2)CC1 | inconclusive: 50.1 µM [activator, single point] | –
CSc1ncccc1C(=O)OCC(=O)NCCCc1ccccc1 | – | inactive: -1.07%
Cc1ccc(/C=C2\CC(C)CC3=C2NC(=S)NC3c2ccc(C)cc2)cc1 (stereo not drawn) | inconclusive: 15.8 µM [activator, partial curve] | –
COc1cc(CCN(C(=O)c2cccc(S(C)(=O)=O)c2)C(CCc2ccccc2)c2nc3ccccc3[nH]2)cc(OC)c1 (stereo not drawn) | inconclusive: 35.5 µM [activator, single point] | –
CCOC(=O)c1oc2c(c1C)-c1nn(Cc3ccc(Cl)cc3)cc1CC2 | inconclusive: 31.6 µM [activator, single point] | –
COc1cc(C(NC(=O)C(F)(F)F)C2CCCC=C2c2ccccc2)cc(OC)c1OC (stereo not drawn) | – | inactive: 15.7%
Cc1ccc(S(=O)(=O)N(C)C[C@@H]2Oc3ncc(C#CCC(C)C)cc3C(=O)N([C@H](C)CO)C[C@H]2C)cc1 | active: 28.2 µM | –
CCCN(Cc1ccccc1)C(=S)NC(=O)c1ccccc1[N+](=O)[O-] | – | inactive: 10.9%
COc1ccc(C)cc1Nc1n[n+](-c2ccccc2)c(-c2ccc(SC)cc2)s1 | inconclusive: 28.2 µM [activator, single point] | –
CN(C)S(=O)(=O)c1ccc(SCC(=O)Nc2cccc(S(=O)(=O)N3CCCC3)c2)nc1 | inconclusive: 20 µM [activator, single point] | –
Cc1ccc(N2CC(c3nc4ccccc4n3CCC3CCCCC3)CC2=O)cc1 (stereo not drawn) | – | inactive: 7.3%
COc1ccc(C2c3c(oc4ccc(F)cc4c3=O)C(=O)N2Cc2ccc3c(c2)OCO3)cc1 (stereo not drawn) | – | inactive: 7.82%
COC(=O)c1cc(-c2ccc(Br)cc2)c2c(=O)n(C)c(=O)n(C)c2n1 | inconclusive: 3.98 µM [activator, single point] | –
COc1ccc(C2/C=C\CN(C(=O)NC34CC5CC(CC(C5)C3)C4)CC(=O)N2Cc2ccc(F)cc2)cc1 (stereo not drawn) | inconclusive: 50.1 µM [activator, single point] | –
COC(=O)CCCCCN1C(=O)NC(c2ccc(-c3ccccc3)cc2)C(C(=O)OCc2ccccc2)=C1C (stereo not drawn) | inconclusive: 2.51 µM [activator, full curve] | –
COC(=O)[C@]12C[C@H](CC(=O)NCc3ccc(C)o3)C(=O)N(Cc3ccc4c(c3)OCO4)C1=C[C@H](C(C)C)O[C@@H]2C1CC1 | inconclusive: 12.6 µM [activator, partial curve] | –
CCC1=NN(C(=O)c2ccc(Cl)cc2)C(O)(c2ccc(C)cc2)C1 (stereo not drawn) | – | inactive: 8.75%
C[C@H](NC(=O)c1[nH]cnc1C(=O)Nc1ccc(Cl)cc1)c1ccccc1 | – | inactive: -5.87%
O=C(NCCc1csc(-c2ccc(Cl)cc2)n1)c1cccs1 | – | inactive: 32.5%
CC(=O)c1c(C)[nH]c(C(=O)OCC(=O)N2CCN(S(=O)(=O)c3ccc(C)cc3C)CC2)c1C | inconclusive: 39.8 µM [activator, single point] | –

— PubChem BioAssay AID1347120 (National Center for Advancing Translational Sciences (NCATS), 2019)
